The other results are listed elsewhere or left out.

B1: chr20:57415074:57415075:+_ENSG00000087460_ENST00000313949|hu_hu|FALSE|FALSE (ssRNA)
RNA: GGGAGUUCUACAGUCCGACGAUCUCUGCAGAGAGUGGCUCCGAAGCACAUUGGCUGCUGGAGCCGGGAAAGGUACACCCUAUGAGGUGAGAAGCUGGCCCGGAGGUCCCAGCCUCACCUCCUUGUGAGGAGAAAAAGGGAAGCCAACAGAGGAUUGAGCAUCA
B2: chr5:143667385:143667386:-_ENSMUSG00000029580_ENSMUST00000171419|mus_mus|motif|central (ssRNA)
RNA: GGGAGUUCUACAGUCCGACGAUCCGACCAGCGCAGCGAUAUCGUCAUCCAUGGCGAACUAUCAAGACACAAAAGAAGGCGGUAGUCACCUCGGGGCCGCCAAGAGCAGCCGCUGCCGCCCUGCCCACUUCCGGCAAGCCGCGGCAACAGAGGAUUGAGCAUCA
B3: 76996067_76996997_2454_CDS_ENSMUSG00000036435_ENSMUST00000113493|mouse|control|control (ssRNA)
RNA: GGGAGUUCUACAGUCCGACGAUCGAAAUGAUUUAGCUUUUCAAGGGGCUGUCCUAAAGAGUAAAUGACGUAGGACUGAAGGUGAUCCGUGUACUUCUGCUUGGCUUCUUUCUUCUCAGCUUCAAGACAUGAGAUUUUCAGACGCAACAGAGGAUUGAGCAUCA
B4: chr9:113799110:113799111:+_ENSMUSG00000033392_ENSMUST00000111838|mus_hu|FALSE|FALSE (ssRNA)
RNA: GGGAGUUCUACAGUCCGACGAUCCAGCAGUACAAACAACCAAUCUUGAAGAUCAUCUUUGUGGACUUGUAUGAAAUCCACUAGAGUCUCCAAAAACAUGCUGAAUACUCUCUUGCCAUGAGGGUCAGCAAACAUUCUUGUGAACAACAGAGGAUUGAGCAUCA
B5: chr1:213178640:213178641:-_ENSG00000174606_ENST00000366962|hu_hu|motif|central (ssRNA)
RNA: GGGAGUUCUACAGUCCGACGAUCUGCUACGCAGAUUGCAGGGCAGGCAGCAUAUGGAAUUUUGGGCUGUAAGAGUAAAACGGAUCCAACAUUGUCUCUGUCCAACAGAGAAAUAUCAGGGCGGAAGAAUUCCACUGGGUUCACCAACAGAGGAUUGAGCAUCA
B6: 100336325_100340262_1318_CDS_ENSG00000162688_ENST00000361915|human|control|control (ssRNA)
RNA: GGGAGUUCUACAGUCCGACGAUCCUUGGUUACUCGCCUAUUUUCUUGUGUAAGAAGUCUUCUAAAUUGCUCAACCGCUUUGUUGACAUCUACUUGGAAAAAUUCCCAGAGUUUAAGCUUUGGAAAAAUAUCCUCCCAAAUUAUCAACAGAGGAUUGAGCAUCA
B7: chr1:133183185:133183186:-_ENSMUSG00000026425_ENSMUST00000097588|mus_mus|FALSE|FALSE (ssRNA)
RNA: GGGAGUUCUACAGUCCGACGAUCGCUGAGUGAGUCUUAGGUUCGCACAAAGCAUCUUCAAGCAUACAUACAAUAUUCCAGUUAUCAACACCAUUUUAAAGAACAUACCAUUUUACACAAAUGUGACAUACAAAUCAGACGCCACAACAGAGGAUUGAGCAUCA
B8: chr4:17845017:17845018:+_ENSG00000109805_ENST00000514176|hu_mus|hu_hu_hu_mus_False|68_98 (ssRNA)
RNA: GGGAGUUCUACAGUCCGACGAUCGCUCUCUUAACUUGAUCUUCAUUUAAGGAACUCUGCAAGGUUAGUUUACUUUUUCUGUAGCGCAGCUGUUUUGGCUCGUCUGGGUAAUCUCAUCUUCAUUUCUGAUGGUGGUUCAUGAUCCAACAGAGGAUUGAGCAUCA
B9: chr12:48362563:48362564:+_ENSG00000134291_ENST00000256686|hu_hu|hu_hu_hu_mus_False|38_48 (ssRNA)
RNA: GGGAGUUCUACAGUCCGACGAUCUCCGUCAAGCCCUUCGAUAGACCCUUGCGGGGGAAACUGUAAUCACUUUGUAUGGGGAAGGAAAAAAAAAGCCAACACACUUUCAAAAAGCGGGGGUGGGGUGAGGCGGGAGGGGGAGGUCAACAGAGGAUUGAGCAUCA
B10: chr9:54997157:54997158:+_ENSMUSG00000032307_ENSMUST00000059555|mus_mus|FALSE|FALSE (ssRNA)
RNA: GGGAGUUCUACAGUCCGACGAUCCGGCUGCUGCCUUUGUAACCGACUCCACCCGCAGGAGGCGGUGGCCCCGCGGCUUAAAAGGGCAACAGCGACGCCGCCCCCACCGCCGCCUGGGAGAGGGCUGCCCCCGCCCCGGCGCGCCAACAGAGGAUUGAGCAUCA
B11: chr1:171484892:171484893:+_ENSG00000117523_ENST00000367742|hu_hu|FALSE|FALSE (ssRNA)
RNA: GGGAGUUCUACAGUCCGACGAUCUUUUUUUUCCUGAUCCCCAGCUGCCUGCAGGCUGGGAAAUUCUUGCUGAAACUGACUAUUCACUUGGAUUCCAUCUCCUUGCCCACCUUGCUUGUUACUGGCCCAUGAUUUGGGAGCAGGCAACAGAGGAUUGAGCAUCA
B12: chr7:149068622:149068623:-_ENSMUSG00000025139_ENSMUST00000001950|mus_hu|mus_mus_mus_hu_False|18_108 (ssRNA)
RNA: GGGAGUUCUACAGUCCGACGAUCGUGCAGGUACUGAGUGUGGCUUGUGGUCUGUCCUGGGUUAGAGUUGUUAAUAUCACGGAACAUACCAUCUAGAACGUUCCAGUCCCGCCUGACCAUCCACCCUCCAAUGGAGAAGAAAUCCAACAGAGGAUUGAGCAUCA
B13: chr4:95690885:95690886:+_ENSMUSG00000028572_ENSMUST00000156910|mus_mus|motif|central (ssRNA)
RNA: GGGAGUUCUACAGUCCGACGAUCAUAAUUUUUAGAAAAUGUUAAAUAGCAUGCUAAGUAAUUUUAAAGUCUUAUUUUACGGAAAGACACAGGCAAGCAGACACCAUAAACAUACAAAAAUACAAACCAACAGUGUAAAAUGUACAACAGAGGAUUGAGCAUCA
B14: 27872824_27873996_4813_CDS_ENSMUSG00000026837_ENSMUST00000028280|mouse|control|control (ssRNA)
RNA: GGGAGUUCUACAGUCCGACGAUCCGGAGGGCCGAUGAGUCCAAUCAGGCCUGGAUGGCCCUUUUCACCUUUGGGACCGGAGUCUCCUUUGAGGCCAGGGAGUCCUGGAGGACCCAUGGGGCCGGGUGGACCAUCGGGGCCUGGCAACAGAGGAUUGAGCAUCA

This assay concerns the target T1, UNK ZnF1-3 (human, UniProt Q9C0B0 31-174).
T1 sequence: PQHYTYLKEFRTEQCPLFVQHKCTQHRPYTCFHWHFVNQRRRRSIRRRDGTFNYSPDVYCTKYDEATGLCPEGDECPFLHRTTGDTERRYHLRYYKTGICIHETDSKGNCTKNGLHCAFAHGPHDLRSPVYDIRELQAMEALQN
The assay can be described thus: nsRBNS (natural sequence RNA bind-n-seq); RBNS binding buffer (assumed for nsRBNS): 25 mM Tris pH 7.5, 150 mM KCl, 3 mM MgCl2, 0.01% Triton X-100, 500 ug/ml BSA, 20 U/ml SUPERase-In, 4 C; UNK is unkempt and MSI1 is Musashi-1; names of the RNAs are library labels; protein concentration not given here; high values mean tight binding.
Molecule B1 came in with a binding signal of 0.813 enrichment R.
Consider B2, for which the binding signal was found to be 0.702 enrichment R.
Consider B3, for which the binding signal was 0.825 enrichment R.
Molecule B4 returned a binding signal of 0.808 enrichment R.
B5 showed a binding signal of 1.55 enrichment R.
B6 yielded a binding signal of 0.569 enrichment R.
For the molecule B7, the binding signal was 1.16 enrichment R.
B8 displayed a binding signal of 0.348 enrichment R.
As to B9, the binding signal stood at 2.33 enrichment R.
For the molecule B10, the binding signal was determined as 0.554 enrichment R.
As to B11, the binding signal stood at 0.677 enrichment R.
For the molecule B12, the binding signal is 0.953 enrichment R.
In turn, B13 gave a binding signal of 2.47 enrichment R.
With B14 the figure was 0.471 enrichment R.

(Values after PMC12136788.)
